# Laboratory results: article PMC9489631 (Journal of molecular biology, 2022)
# Target: the molecule itself
# Assay: SEC-MALS
protein,measurement,value
"folded core region of TAF-Iβ (cTAF-Iβ), […] (domain or fragment) not shown",stoichiometry N,2
